# Reference: the supplement of paper PMC9446081
# About 220 (0.56%) of roughly 39,000 compounds showed activity. This is one part of the list.
# Tested on: Escherichia coli K-12 BW25113
# Assay: relative growth (OD600 normalised to plate interquartile mean) (fraction); higher = less growth inhibition, active = 0.2 or less
# Settings: 50 µM; LB; incubation time: overnight (16-24 h)
# 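Further: static incubation at 37 °C against the wild-type strain, values averaged over two biological replicates.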
row,Compound,relative growth
1,CO[C@@H]1CN(C)C(=O)c2ccc(NC(=O)Nc3cccc(F)c3)cc2OC[C@@H](C)N(C(=O)Nc2c(C)noc2C)C[C@@H]1C,inactive: 0.977
2,C[C@H](CO)N1C[C@H](C)[C@H](CN(C)C(=O)Nc2ccc(F)cc2)OCCCC[C@H](C)Oc2ccc(NC(=O)C3CCC3)cc2C1=O,inactive: 0.996
3,Cc1ccc(S(=O)(=O)N(C)C[C@@H]2Oc3c(NC(=O)Nc4cccc5ccccc45)cccc3C(=O)N([C@H](C)CO)C[C@H]2C)cc1,inactive: 1.06
4,Cc1ccc(C(N)=S)c(=O)[nH]1,inactive: 1
5,COc1ccc(S(=O)(=O)N(C)C[C@@H]2Oc3c(cccc3N(C)C)C(=O)N([C@@H](C)CO)C[C@@H]2C)cc1,inactive: 0.895
6,Cc1noc(C)c1S(=O)(=O)N(C)C[C@@H]1Oc2ccc(NS(=O)(=O)c3ccc(Cl)cc3)cc2C(=O)N([C@H](C)CO)C[C@@H]1C,inactive: 1.01
7,COc1cccc(NC(=O)N(C)C[C@H]2OCc3ccccc3-c3c(n(C)c4ccccc34)C(=O)N([C@H](C)CO)C[C@@H]2C)c1,inactive: 0.974
8,C=CCOC(=O)[C@@H]1[C@H]2C(=O)O[C@H](c3ccccc3)[C@H](c3ccccc3)N2[C@H](c2ccc(OCCOC(=O)[C@@H]3C[C@@H]4C(=O)N5CCC[C@H]5C(=O)N4[C@@H]3c3ccc(O)cc3)cc2)[C@@]12C(=O)Nc1ccc(I)cc12,inactive: 1.05
9,CNC[C@@H](O)Cn1cc(C)c(C(C)=O)c1C,inactive: 0.984
10,C[C@@H]1CN([C@H](C)CO)C(=O)Cc2cc(NC(=O)c3ccncc3)ccc2O[C@@H]1CN(C)S(=O)(=O)c1ccccc1,inactive: 0.995
11,CN(C)CCNC(=O)[C@@H]1CCS(=O)(=O)[C@H]2CN(C(=O)Nc3ccccc3)C[C@@H]12,inactive: 1.01
12,C[C@@H]1CN([C@H](C)CO)C(=O)c2cc(-c3cccc(C#N)c3)cnc2O[C@H]1CN(C)C(=O)C1CCOCC1,inactive: 0.982
13,COc1ccc(S(=O)(=O)N(C)C[C@H]2OCCCC[C@@H](C)Oc3ccc(NC(=O)c4ccccc4)cc3C(=O)N([C@@H](C)CO)C[C@@H]2C)cc1,inactive: 1.02
14,O=C(C[C@@H]1C=C[C@@H](NC(=O)c2ccncc2)[C@@H](CO)O1)NCc1ccncn1,inactive: 0.994
15,Cc1nc(N)c(C(=O)O)nc1C,inactive: 1.03
16,C[C@H]1CN([C@@H](C)CO)C(=O)c2cc(/C=C/c3ccccc3)cnc2O[C@H]1CN(C)C(=O)C1CCOCC1,inactive: 1.01
17,CCN1[C@H](C(=O)NCCOC)[C@@H](CO)[C@@H]2Cn3c(ccc(-c4ccc(C(=O)N(C)C)cc4)c3=O)[C@@H]21,inactive: 1.03
